# Reference: the supplement of paper PMC4604168 (melanoma cell lines)
# Some of the results follow. Many values rest on one well or one pass, so single values are uncertain.
# Test system: COLO800
# Assay: cell count relative to DMSO control; melanoma cells; higher = more viable cells
# Conditions: library dose: low library concentration; 72 h
# 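Also: cell number obtained by counting DAPI-stained nuclei in high-throughput microscope images with image analysis software, screen run in 1,536-well plates.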
row,Compound,cell count
1,"C[C@]12O[C@H](C[C@]1(O)CO)n1c3ccccc3c3c4c(c5c6ccccc6n2c5c31)CNC4=O [Lestaurtinib] + C=CCNC1=C2C[C@@H](C)C[C@H](OC)[C@H](O)[C@@H](C)/C=C(\C)[C@H](OC(N)=O)[C@@H](OC)/C=C\C=C(/C)C(=O)NC(=CC1=O)C2=O [Tanespimycin] (first compound 0.004 µM, partner dose 0.002 µM)",108%
2,"C[C@]12O[C@H](C[C@]1(O)CO)n1c3ccccc3c3c4c(c5c6ccccc6n2c5c31)CNC4=O [Lestaurtinib] + COc1ccc(Cl)c(Nc2nc3ccccc3nc2NS(=O)(=O)c2cccc(NC(=O)C(C)(C)N)c2)c1 [XL147] (first compound 0.004 µM, partner dose 0.8 µM)",67.8%
3,"C[C@]12O[C@H](C[C@]1(O)CO)n1c3ccccc3c3c4c(c5c6ccccc6n2c5c31)CNC4=O [Lestaurtinib] + CCN(CC)CCNC(=O)c1c(C)[nH]c(/C=C2\C(=O)Nc3ccc(F)cc32)c1C [sunitinib] (first compound 0.004 µM, partner dose 0.4 µM)",69.3%
4,"C[C@]12O[C@H](C[C@]1(O)CO)n1c3ccccc3c3c4c(c5c6ccccc6n2c5c31)CNC4=O [Lestaurtinib] + CS(=O)(=O)c1ccc(C(=O)Nc2ccc(Cl)c(-c3ccccn3)c2)c(Cl)c1 [vismodegib] (first compound 0.004 µM, partner dose 1 µM)",84%
5,"C[As](C)SC[C@H](NC(=O)CC[C@H](N)C(=O)O)C(=O)NCC(=O)O [Darinaparsin] + Cn1cc(/C=C2\C(=O)Nc3cccnc32)c2ccccc21 [GW441756] (first compound 0.4 µM, partner dose 0.4 µM)",123%
6,"C[C@]12O[C@H](C[C@]1(O)CO)n1c3ccccc3c3c4c(c5c6ccccc6n2c5c31)CNC4=O [Lestaurtinib] + CC(=O)c1c(C)c2cnc(Nc3ccc(N4CCNCC4)cn3)nc2n(C2CCCC2)c1=O [palbociclib] (first compound 0.004 µM, partner dose 0.04 µM)",140%
7,"C[C@]12O[C@H](C[C@]1(O)CO)n1c3ccccc3c3c4c(c5c6ccccc6n2c5c31)CNC4=O [Lestaurtinib] + Nc1nc(F)nc2c1ncn2[C@@H]1O[C@H](CO)[C@@H](O)[C@@H]1O [fludarabine] (first compound 0.004 µM, partner dose 0.2 µM)",50.5%
8,"Cn1cc(C2=C(c3cn(C4CCN(Cc5ccccn5)CC4)c4ccccc34)C(=O)NC2=O)c2ccccc21 [Enzastaurin] + C[C@]12O[C@H](C[C@]1(O)CO)n1c3ccccc3c3c4c(c5c6ccccc6n2c5c31)CNC4=O [Lestaurtinib] (first compound 0.8 µM, partner dose 0.004 µM)",117%
9,"C[C@]12O[C@H](C[C@]1(O)CO)n1c3ccccc3c3c4c(c5c6ccccc6n2c5c31)CNC4=O [Lestaurtinib] + CS(=O)(=O)CCNCc1ccc(-c2ccc3ncnc(Nc4ccc(OCc5cccc(F)c5)c(Cl)c4)c3c2)o1 [lapatinib] (first compound 0.004 µM, partner dose 0.8 µM)",94.5%
10,"C[C@]12O[C@H](C[C@]1(O)CO)n1c3ccccc3c3c4c(c5c6ccccc6n2c5c31)CNC4=O [Lestaurtinib] + Clc1ccc(Nc2nnc(Cc3ccncc3)c3ccccc23)cc1 [vatalanib] (first compound 0.004 µM, partner dose 2 µM)",31.5%
11,"C[C@]12O[C@H](C[C@]1(O)CO)n1c3ccccc3c3c4c(c5c6ccccc6n2c5c31)CNC4=O [Lestaurtinib] + Cc1cc(Nc2cc(N3CCN(C)CC3)nc(/C=C/c3ccccc3)n2)n[nH]1 [ENMD2076] (first compound 0.004 µM, partner dose 0.04 µM)",63.6%
12,"C[C@]12O[C@H](C[C@]1(O)CO)n1c3ccccc3c3c4c(c5c6ccccc6n2c5c31)CNC4=O [Lestaurtinib] + C#Cc1cccc(Nc2ncnc3cc(OCCOC)c(OCCOC)cc23)c1 [erlotinib] (first compound 0.004 µM, partner dose 0.8 µM)",99.9%
13,"C[C@]12O[C@H](C[C@]1(O)CO)n1c3ccccc3c3c4c(c5c6ccccc6n2c5c31)CNC4=O [Lestaurtinib] + Nc1ncn([C@H]2C[C@H](O)[C@@H](CO)O2)c(=O)n1 [decitabine] (first compound 0.004 µM, partner dose 0.1 µM)",81.2%
